# Laboratory results reported in PubChem BioAssay AID1460 (National Center for Advancing Translational Sciences (NCATS), 2008).
# In all, about 270,000 compounds went through this assay and about 5,800 (2.1%) were called active. The inconclusive results got no clear call from the source; some entries with a clear call stand among them for comparison. Calls follow the shape of the dose curve; as a rule, active = well fitted inhibition curve with a large enough effect; inconclusive = small, poorly fitted or top-dose-only effect; inactive = flat fitted curve, though single readings scatter. Potencies beside an inconclusive call are fits to weak or partial responses and may not hold up.
# Biological target: Microtubule-associated protein tau (Homo sapiens) (UniProt P10636)
# UniProt P10636, sequence (P10636 whole entry, looked up): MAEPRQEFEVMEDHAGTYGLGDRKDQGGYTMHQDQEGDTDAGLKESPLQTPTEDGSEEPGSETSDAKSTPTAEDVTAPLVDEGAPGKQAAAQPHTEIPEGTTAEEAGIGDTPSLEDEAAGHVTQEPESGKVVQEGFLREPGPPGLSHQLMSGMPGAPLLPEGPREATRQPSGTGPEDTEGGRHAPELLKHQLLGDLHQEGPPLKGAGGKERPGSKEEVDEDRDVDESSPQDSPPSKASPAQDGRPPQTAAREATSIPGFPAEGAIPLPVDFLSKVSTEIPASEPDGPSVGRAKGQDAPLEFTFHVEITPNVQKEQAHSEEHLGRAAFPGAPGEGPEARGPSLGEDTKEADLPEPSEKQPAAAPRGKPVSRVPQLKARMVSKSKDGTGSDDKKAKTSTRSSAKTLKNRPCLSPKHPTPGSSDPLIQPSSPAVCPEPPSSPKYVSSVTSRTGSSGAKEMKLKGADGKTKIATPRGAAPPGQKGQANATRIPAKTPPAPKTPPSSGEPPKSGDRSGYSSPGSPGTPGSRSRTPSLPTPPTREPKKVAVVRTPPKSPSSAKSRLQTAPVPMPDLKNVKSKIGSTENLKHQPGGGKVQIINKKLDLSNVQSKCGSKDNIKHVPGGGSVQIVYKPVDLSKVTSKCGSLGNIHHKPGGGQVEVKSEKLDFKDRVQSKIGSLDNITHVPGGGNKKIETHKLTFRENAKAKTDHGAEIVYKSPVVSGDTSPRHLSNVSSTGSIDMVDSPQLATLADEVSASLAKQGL
# Test: qHTS for Inhibitors of Tau Fibril Formation, Thioflavin T Binding; also: nearly all actives have a fitted effect of over 55% in size
# Settings: recombinant tau K18 P301L (four-repeat tau fragment), heparin-induced fibrillization, ThT fluorescence; series mostly up to 57.4 µM
# Summary of the method: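 Tau K18 P301L fragment (15 uM unlabeled plus 0.24 uM Alexa 594-labeled) in 100 mM sodium acetate pH 7 with compound, fibrillization induced by 20 uM heparin for 6 hr at 37 C. Thioflavin T (30 uM) added, fluorescence read after 1 hr (ex 450, em 510 nm).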
# Potency is read from the fitted curve at half-maximal effect; tags tell the direction and shape of the fitted curve.
row,SMILES,Potency
1,COC(=O)c1c(NC(=O)C2CC2)sc2c1CCCC2,"inconclusive: 39.8 µM [inhibitor, single point]"
2,COc1ccc(N2CCN(CCCNC(=O)c3cc4sccc4n3C)CC2)cc1,"inconclusive: 35.5 µM [inhibitor, partial curve]"
3,CC1C/C(=C/c2cccs2)C(=O)/C(=C/c2cccs2)C1 (configuration not stated),"inconclusive: 10 µM [inhibitor, partial curve]"
4,O=C(Nc1ccc(F)cc1)C1CCN(S(=O)(=O)c2ccc3c(c2)CCCN3C(=O)C2CCC2)CC1,inactive
5,CC(=O)c1cc(NC(=O)c2ccc(C)cc2)c(=O)oc1/C=C/N(C)C,"inconclusive: 25.1 µM [inhibitor, partial curve]"
6,O=C(Nc1ccc2snnc2c1)N1CCOCC1,inactive
7,c1csc(Cn2nnnc2CN2CCN(c3nc4ccccc4s3)CC2)c1,inactive
8,CCN1/C(=C/c2ccc3cc(C)ccc3[n+]2CC)Sc2ccccc21,active: 17.8 µM
9,CCOc1ccc(-c2oc3ccc(C)cc3c(=O)c2O)cc1,"inconclusive: 1.78 µM [inhibitor, full curve, poor fit]"
10,CC(=O)Nc1ccc(S(=O)(=O)Oc2ccc3c(c2)C(C)=CC(C)(C)N3)cc1,"inconclusive: 35.5 µM [inhibitor, partial curve]"
11,C#CCOC(=O)c1ccc(-n2cncn2)nc1,"inconclusive: 25.1 µM [inhibitor, partial curve]"
12,Brc1ccc(-c2nnc3sc(CNCc4ccc5c(c4)OCO5)cn23)cc1,"inconclusive: 3.98 µM [inhibitor, single point]"
13,COc1cccc(/C=N/n2c(CO)nc3ccccc32)c1OC,"inconclusive: 10 µM [inhibitor, partial curve]"
14,O=C1CC(=C2c3ccccc3-c3ccccc32)C(=O)N1CCCCN1CCN(c2ccccc2)CC1,"inconclusive: 14.1 µM [inhibitor, partial curve]"
15,Cc1ccc2c(Cl)c(C(=O)N/N=C/c3cccn3C)sc2c1,"inconclusive: 0.562 µM [inhibitor, full curve]"
16,CCOC(=O)c1c(C)[nH]c(N=Nc2ccc(C)cc2)c1C,active: 7.94 µM
17,COc1ccc(NC(=O)c2sc3nc(C(F)(F)F)cc(C)c3c2N)cc1OC,"inconclusive: 8.91 µM [inhibitor, partial curve, poor fit]"
18,COc1ccc(N2CCN(C(=O)COCc3cc(-c4ccc5c(c4)OCO5)on3)CC2)cc1,"inconclusive: 2.24 µM [inhibitor, full curve]"
19,Cc1ccc(-n2nnnc2C(Cl)c2nnnn2-c2ccc(C)cc2)cc1,active: 20 µM
20,COc1ccccc1NC(=O)c1cc2c(C)nn(-c3ccccc3)c2s1,"inconclusive: 28.2 µM [activator, partial curve, poor fit]"
21,Cc1c(C)n(CC(O)CNc2ccccc2)c2ccccc12 (configuration not stated),"inconclusive: 14.1 µM [inhibitor, partial curve]"
22,O=C1C(Cl)=C(NCC2CCCO2)C(=O)N1C1CCCCC1 (configuration not stated),inactive
23,O=C1COc2ccc(C(=O)C[n+]3cccc(O)c3)cc2N1,inactive

row,SMILES,Potency
1,CC(=O)[C@@H]1[C@H]2[C@H](C(=O)[C@H]3OC[C@@H]2O3)[C@H]2C=Cc3ccccc3N21,active: 15.8 µM
2,Clc1ccccc1-c1nc(N2CCNCC2)c2ccccc2n1,"inconclusive: 12.6 µM [inhibitor, partial curve, poor fit]"
3,O=C1Nc2ccc(F)cc2C12Nc1ccccc1-c1nnc(SCc3ccccc3)nc1O2 (configuration not stated),"inconclusive: 28.2 µM [inhibitor, single point]"
4,Cc1noc2ncnc(Oc3ccc4ccccc4c3)c12,"inconclusive: 20 µM [inhibitor, single point]"
5,O=C(NNC(=S)Nc1ccc(Cl)c(Cl)c1)c1ccccn1,"inconclusive: 15.8 µM [inhibitor, partial curve]"
6,CCCCCCc1cc2cc(C(=O)Nc3ccccc3)c(=O)oc2cc1O,inactive
7,Cc1csc2nc(CNC(=O)C3CCCCC3)cn12,inactive
8,O=C1NN(c2ccccc2)C(=O)/C1=C/c1ccc(Sc2cccc3ccccc23)o1,active: 12.6 µM
9,O=c1c(-c2ccco2)[n+]([O-])c2ccccc2n1OCc1ccccn1,"inconclusive: 14.1 µM [inhibitor, partial curve]"
10,O=C1N/C(=C/c2ccc(N3CCOCC3)o2)C(=O)N1c1ccccc1,"inconclusive: 5.01 µM [inhibitor, full curve]"
11,O=C(COc1ccc(Br)cc1)N1CCN(c2ccc([N+](=O)[O-])c(N3CCCCC3)c2)CC1,"inconclusive: 3.98 µM [inhibitor, partial curve]"
12,CCc1cccc(CC)c1NC(=O)CN1C2CCCC1CC(NC(=O)Nc1cccc(OC)c1)C2 (configuration not stated),"inconclusive: 20 µM [inhibitor, partial curve, poor fit]"
13,COc1ccc(CCNC(=O)c2ccc(CNS(=O)(=O)c3ccc(C(C)(C)C)cc3)cc2)cc1OC,inactive
14,COc1ccc(C(=O)Oc2c(Sc3ccc(C)cc3)c(C)nn2C(C)(C)C)cc1OC,"inconclusive: 1.41 µM [inhibitor, partial curve]"
15,O=C(O)CSc1nc2ccccc2n1-c1ccccc1,inactive
16,COc1ccccc1NC(=O)Cn1c(=O)n(CC(=O)NCc2ccccc2Cl)c(=O)c2sccc21,inactive
17,COc1ccc2c(c1)CC/C2=N\NC(=O)c1ccccc1,"inconclusive: 10 µM [inhibitor, partial curve]"
18,CCOc1ccc(CNC(=O)c2cc(-c3ccc(Cl)s3)nc3ccccc23)cc1,inactive
19,CCCc1nc2ccccc2c(C(=O)OC(C)C(=O)NCc2ccc3c(c2)OCO3)c1CC (configuration not stated),"inconclusive: 39.8 µM [inhibitor, single point]"
20,COc1ccc(CCNc2ncnc3c2[nH]c2cc(OC)c(OC)cc23)cc1OC,"inconclusive: 8.91 µM [inhibitor, partial curve]"
21,O=C(CSc1c2c(nc3ccccc13)CCCC2)NCc1ccco1,"inconclusive: 2.51 µM [inhibitor, partial curve]"
22,Cc1ccc(C(=O)Oc2cc(-c3ccc4c(c3)OCO4)cc(=O)c3c(C)oc(C)c23)cc1,"inconclusive: 39.8 µM [inhibitor, single point]"
23,Cc1ccc(NC(=O)C2CCN(c3nc(-c4ccc(C(C)C)cc4)no3)CC2)c(Cl)c1,"inconclusive: 2.51 µM [inhibitor, partial curve]"

row,SMILES,Potency
1,Cc1ccccc1NC(=O)CSc1nc(-c2ccco2)nc2cc(=O)[nH]n12,"inconclusive: 14.1 µM [inhibitor, partial curve]"
2,Nc1nnnn1/N=C/C(Br)=C/c1ccccc1,"inconclusive: 7.08 µM [inhibitor, partial curve]"
3,C=C(C)Cn1c(-c2ccc(OC)cc2)nc2ccccc21,"inconclusive: 0.501 µM [inhibitor, partial curve]"
4,O=C1/C(=C/c2ccccc2O)SC(=S)N1Cc1cccnc1,"inconclusive: 14.1 µM [inhibitor, single point]"
5,COc1ccccc1NC(=O)c1ccc(NC(=O)CN2C(=O)CN(C)C2=O)cc1,"inconclusive: 39.8 µM [inhibitor, single point]"
6,O=C(NCCN1CCCCC1)c1ccc(Cn2c(SCc3ccccc3)nc3cccnc32)cc1,"inconclusive: 17.8 µM [inhibitor, partial curve, poor fit]"
7,CC(=O)OCC1OC(Oc2cc(OC(C)=O)c3c(=O)cc(-c4ccc(OC(C)=O)c(OC(C)=O)c4)oc3c2)C(OC(C)=O)C(OC(C)=O)C1OC(C)=O (configuration not stated),"inconclusive: 35.5 µM [inhibitor, partial curve]"
8,CCOc1cc(C)ccc1OCc1nnc(SCC(=O)c2cccc([N+](=O)[O-])c2)n1C,"inconclusive: 20 µM [inhibitor, partial curve]"
9,COCCCn1c(-c2ccc(S(=O)(=O)N3CCOCC3)cc2)csc1=Nc1ccccc1,"inconclusive: 20 µM [inhibitor, single point]"
10,CC1=CC(=O)C=C(C)C1=NOc1ccccc1[N+](=O)[O-],"inconclusive: 39.8 µM [inhibitor, single point]"
11,Cc1[nH]nc(SCC(=O)NC2CCCCC2)c1[N+](=O)[O-],"inconclusive: 15.8 µM [inhibitor, partial curve, poor fit]"
12,Cn1c(CCCCCN)nc2ccccc21,"inconclusive: 15.8 µM [inhibitor, partial curve]"
13,Cc1ccc(N(Cc2ccco2)C(=O)c2cccc(S(=O)(=O)N(C)C)c2)cc1,inactive
14,COc1ccc(N)c2c1OCCC2=O,"inconclusive: 44.7 µM [inhibitor, single point]"
15,Cc1ccc(N(C)C(=O)N2CCN(S(=O)(=O)c3c(C)cc(C)cc3C)CC2)cc1,"inconclusive: 31.6 µM [inhibitor, partial curve]"
16,O=S(=O)(/N=S1/CC=CCN1S(=O)(=O)c1ccccc1)c1ccccc1 (configuration not stated),"inconclusive: 6.31 µM [inhibitor, single point]"
17,CNC(=O)c1[nH]cnc1C(=O)Nc1ccc(Cl)cc1,"inconclusive: 10 µM [inhibitor, partial curve, poor fit]"
18,Cc1cnc(C(=O)Nc2ccc3c(c2)CCC3)cn1,"inconclusive: 20 µM [inhibitor, partial curve]"
19,CCOC(=O)c1c(NC(=O)CSc2nnc(CNc3ccc(F)cc3)o2)sc(C)c1C,inactive
20,Cc1ccc(C(=O)Nc2ccccc2)cc1S(=O)(=O)Nc1ccccc1,inactive
21,COC(=O)c1c(C)oc2ccc(N(C(=O)c3ccncc3)S(=O)(=O)c3cc(C)ccc3C)cc12,"inconclusive: 15.8 µM [inhibitor, partial curve, poor fit]"
